# From PubChem BioAssay AID624172 (National Center for Advancing Translational Sciences (NCATS), 2012)
# Hit rate of the full screen: of about 380,000 compounds, about 25 (0.007%) were called active. Inconclusive means that the source gave no clear call. Such entries were picked first, then a sample of the others. Calls follow the shape of the dose curve; as a rule, active = well fitted activation curve with a large enough effect; inconclusive = small, poorly fitted or top-dose-only effect; inactive = no such curve, though single readings can be large or run the other way. No potency is given beside an inconclusive call; the fits are too rough.
# Biological target: Glucagon-like peptide 1 receptor (Homo sapiens) (UniProt P43220)
# Assay: qHTS of GLP-1 Receptor Agonists; as to activation: % of control where 0% means no effect
# Settings: HEK293 GLP-1R CRE-luciferase, luminescence, 4-6 h, cells express a hypersensitive GLP-1R form; activation: at 45.6 µM (top of the series) unless noted
# Potency is read from the fitted curve at half-maximal effect; tags tell the direction and shape of the fitted curve.
# Chain of UniProt P43220 (P43220 whole entry, looked up): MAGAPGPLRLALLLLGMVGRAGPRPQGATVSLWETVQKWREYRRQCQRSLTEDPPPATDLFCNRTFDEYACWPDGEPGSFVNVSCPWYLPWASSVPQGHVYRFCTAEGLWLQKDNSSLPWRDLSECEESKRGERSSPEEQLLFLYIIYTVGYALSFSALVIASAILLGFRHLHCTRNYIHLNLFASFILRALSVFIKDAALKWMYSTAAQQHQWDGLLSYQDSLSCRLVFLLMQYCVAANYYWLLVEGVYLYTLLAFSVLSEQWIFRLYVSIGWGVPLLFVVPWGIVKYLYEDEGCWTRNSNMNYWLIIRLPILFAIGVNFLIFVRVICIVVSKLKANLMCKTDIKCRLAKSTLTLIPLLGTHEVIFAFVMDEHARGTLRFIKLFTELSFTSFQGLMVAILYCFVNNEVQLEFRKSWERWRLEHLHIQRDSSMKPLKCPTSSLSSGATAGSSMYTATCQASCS
Structure (SMILES),Potency,activation
O=C(NNC1=C(C(=O)C(F)(F)F)CCC1)c1ccc(Cl)cc1,inactive,–
COc1cc2c(cc1OC)-c1cc(Nc3cccc(C)c3)nc(=O)n1CC2,"inconclusive [activator, full curve, poor fit]",–
O=C(NCCN1CCc2ccccc2C1)C1CCN(S(=O)(=O)N2CCCCC2)CC1,inactive,–
CCC1CCCCN1CCCNC(=O)c1ccc2c(c1)N(Cc1cccc(C)c1)C(=O)c1ccccc1S2(=O)=O (stereo not given),inactive,–
COc1ccc(Cc2nnc(NC(=O)CSc3ccccc3)s2)cc1,inactive,–
CCn1c2ccccc2c2nc3cc(S(=O)(=O)N4CCOCC4)ccc3nc21,"inconclusive [activator, partial curve, poor fit]",–
CC1CC(C)CN(C(=O)CSc2nnc(N)s2)C1 (stereo not given),inactive,–
CCOC(=O)c1sc(N)c(C(=O)OCC)c1C,"inconclusive [activator, single point]",–
CNc1cc(C(=O)Nc2cccc(OCc3ccccc3)c2)ncn1,–,inconclusive: 47.7% [activator]
C=CCNC(=O)CSc1nc2scc(-c3ccco3)c2c(=O)n1CC=C,"inconclusive [activator, single point]",–
O=C(CCC(=O)N1CCc2ccccc21)Nc1ccccc1,–,inconclusive: 34.7% [activator]
COc1ccc(/C=C2\SC(=S)N(CCCC(=O)N3CCOCC3)C2=O)cc1,inactive,–
CC(C)Sc1nc2c(c(=O)[nH]c(=O)n2C)n1Cc1ccc(Cl)cc1,"inconclusive [activator, full curve, poor fit]",–
Cc1csc(NC(=O)c2ccccc2)n1,inactive,–
COC(=O)CSc1nc(N)c2c3c(sc2n1)CCCC3,"inconclusive [activator, partial curve, poor fit]",–
COc1ccccc1OCC#CCSc1ncccn1,"inconclusive [activator, single point]",–
Nc1cc2c(cc1C(=O)c1ccc(Cl)cc1)OCCO2,"inconclusive [activator, partial curve, poor fit]",–
CCOc1ccc(/C=N/NC(=O)C(C)Sc2ccccn2)cc1OCC (stereo not given),"inconclusive [activator, partial curve, poor fit]",–
NS(=O)(=O)c1ccc(CNc2nc(-c3cccnc3)nc3ccccc23)cc1,"inconclusive [activator, partial curve, poor fit]",–
O=C(Cn1ncc(Cl)c(Cl)c1=O)N1CCN(Cc2ccccc2)CC1,inactive,–
CCOC(=O)c1sc(NC(=O)/C=C/c2cnn(CC)c2C)c(C(=O)OCC)c1C,"inconclusive [activator, full curve, poor fit]",–
CC(C)N1CCCC(C)(C(=O)Nc2cccc(Oc3ccccc3)c2)C1 (stereo not given),"inconclusive [activator, partial curve, poor fit]",–
CCOC(=O)C1=C(C)NC(SCC(=O)OC)=C(C#N)C1c1ccc(C(=O)OC)cc1 (stereo not given),"inconclusive [activator, partial curve, poor fit]",–

Structure (SMILES),Potency,activation
O=C1C(Nc2cccc(O)c2)=C(N2CCCCC2)C(=O)c2ccccc21,inactive,–
Cc1cc(C(=O)Nc2cccc(C(=O)O)c2)oc1C,inactive,–
COc1ccccc1Nc1nc(N)nc(CSc2nc(C)cc(C)n2)n1,"inconclusive [activator, single point]",–
COc1cc2cnc(-c3ccsc3)cc2cc1OC,"inconclusive [activator, partial curve, poor fit]",–
CC(C)CNS(=O)(=O)c1cc(C(=O)N2CC(C)OC(C)C2)c(Cl)cc1Cl (stereo not given),inactive,–
Cc1cc(C(=O)OCC(=O)NCCC(C)C)c2ccccc2n1,"inconclusive [activator, partial curve, poor fit]",–
CCOC(=O)C1=C(N)OC2=C(C(=O)CC(C)(C)C2)C1c1ccc(CC)s1 (stereo not given),"inconclusive [activator, single point]",–
Cc1ccc(N/C=C(\C2OC(=O)c3ccccc32)[N+](=O)[O-])c(C)c1 (stereo not given),inactive,–
CCOC(=O)c1c(C)nc2cc(C)ccn12,"inconclusive [activator, partial curve, poor fit]",–
Clc1cccc(Cl)c1CSc1cc2c(nn1)-c1ccccc1CC2,inactive,–
Cc1cc(C(C#N)c2ccc(Cl)cc2)c(Cl)cc1NC(=O)c1cc(I)cc(I)c1O (stereo not given),–,inconclusive: 42.1% [activator]
COc1ccc(NC(=O)C2(C)CCN2Cc2csc3ccccc23)cc1OC (stereo not given),"inconclusive [activator, partial curve, poor fit]",–
COc1cc(-c2cnc3c(NC=O)cc(-c4ccccc4)cn23)cc(OC)c1OC,"inconclusive [activator, single point]",–
COc1ccccc1C1=NOC(COc2ccc3c(C)cc(=O)oc3c2)C1 (stereo not given),"inconclusive [activator, partial curve, poor fit]",–
COc1ccc(N2CCN(C(=O)CNC(=O)Cc3ccc(Cl)cc3)CC2)cc1,inactive,–
O=S(=O)(NCc1ccccc1Br)c1cccs1,"inconclusive [activator, single point]",–
CC(=O)NCCC(=O)Nc1sc2c(c1-c1nc3ccccc3[nH]1)CCCC2,"inconclusive [activator, single point]",–
CCCNC(=O)CSc1nc(COc2ccccc2)nc2ccccc12,"inconclusive [activator, full curve, poor fit]",–
COc1ccc(Nc2nc(-c3c(C)nc4ncccn34)cs2)cc1,"inconclusive [activator, partial curve]",–
COc1ccc(OCc2cc(C(=O)N3CCCCCCC3)no2)c(Cl)c1,"inconclusive [activator, full curve]",–
CC1=C(C(=O)Nc2cccc(C(F)(F)F)c2)C(c2ccccn2)n2ncnc2N1 (stereo not given),inactive,–
COc1cccc2cc(C(=O)NC(C)C3CCCO3)c(=O)oc12 (stereo not given),"inconclusive [activator, single point]",–
